target: recombinant human TPH2 (Swiss-Prot: Q8IWU9) (Homo sapiens (Human), UniProt Q8IWU9); assay: In vitro enzyme activity assay, fluorescence-based, TPH2 inhibition; conditions: read-out: IC50 TPH2 (μM) mean; recombinant human TPH2, 40 μM tryptophan, pH 7.0, mean of sample triplicates
Sequence of UniProt Q8IWU9 (Q8IWU9 whole entry): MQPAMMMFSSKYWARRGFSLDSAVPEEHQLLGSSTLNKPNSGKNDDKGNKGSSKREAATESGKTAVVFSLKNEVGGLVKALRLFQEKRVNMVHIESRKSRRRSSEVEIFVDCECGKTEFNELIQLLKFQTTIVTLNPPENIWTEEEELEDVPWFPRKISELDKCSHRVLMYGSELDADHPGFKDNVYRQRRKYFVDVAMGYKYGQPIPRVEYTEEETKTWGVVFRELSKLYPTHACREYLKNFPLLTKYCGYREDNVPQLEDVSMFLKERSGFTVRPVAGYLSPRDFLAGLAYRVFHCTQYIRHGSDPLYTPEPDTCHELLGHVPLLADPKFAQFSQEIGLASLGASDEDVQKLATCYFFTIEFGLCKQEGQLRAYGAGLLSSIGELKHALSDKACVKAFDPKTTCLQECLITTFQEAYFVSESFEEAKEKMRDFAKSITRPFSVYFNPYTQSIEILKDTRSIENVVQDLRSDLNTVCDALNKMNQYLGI

Point of comparison: CCn1c(=O)[nH]c(=O)c2c1nc(Cc1cn3ccccc3n1)n2Cc1ccccc1 [Ex. 1, 8-((H-imidazo[1,2-a]pyridin-2-yl)methyl)-7-benzyl-3-ethyl-1H-purine-2,6(3H,7H)-dione], IC50 0.043 µM. Against it:
- CCn1c(=O)[nH]c(=O)c2c1nc(Cc1cn3c(n1)CCCC3)n2Cc1ccccc1 [Ex. 2, 7-benzyl-3-ethyl-8-((5,6,7,8-tetrahydroimidazo[1,2-a]pyridin-2-yl)methyl)-3,7-dihydro-1H-purine-2,6-dione] — within 1.5-fold, 0.04 µM
- CCn1c(=O)[nH]c(=O)c2c1nc(Cc1cn3c(n1)CCCC3)n2Cc1ccc(-c2ccccc2)cc1 [Ex. 3, 7-([1,1′-biphenyl]-4-ylmethyl)-3-ethyl-8-((5,6,7,8-tetrahydroimidazo[1,2-a]pyridin-2-yl)methyl)-3,7-dihydro-1H-purine-2,6-dione] — within 1.5-fold, 0.039 µM
- CCn1c(=O)[nH]c(=O)c2c1nc(Cc1cn3ccccc3n1)n2Cc1ccc(C(=O)OC)cc1 [Ex. 4, Methyl 4-((8-((H-imidazo[1,2-a]pyridin-2-yl)methyl)-3-ethyl-1,2,3,6-tetrahydro-2,6-dioxopurin-7-yl)methyl)benzoate] — 2.1-fold lower, 0.02 µM
- CCn1c(=O)[nH]c(=O)c2c1nc(Cc1cn3ccccc3n1)n2Cc1ccc2c(c1)OCO2 [Ex. 5, 8-((H-imidazo[1,2-a]pyridin-2-yl)methyl)-7-((benzo[d][1,3]dioxol-5-yl)methyl)-3-ethyl-1H-purine-2,6(3H,7H)-dione] — within 1.5-fold, 0.03 µM
- CCn1c(=O)[nH]c(=O)c2c1nc(Cc1cn3ccccc3n1)n2Cc1ccc(C(=O)O)cc1 [Ex. 6, 4-((3-ethyl-8-(imidazo[1,2-a]pyridin-2-ylmethyl)-2,6-dioxo-1,2,3,6-tetrahydro-7H-purin-7-yl)methyl)benzoic acid] — 6.3-fold higher, 0.272 µM
- CCn1c(=O)[nH]c(=O)c2c1nc(Cc1cn3ccccc3n1)n2Cc1ccc(-c2ccn(C)n2)cc1 [Ex. 7, 3-ethyl-8-(imidazo[1,2-a]pyridin-2-ylmethyl)-7-(4-(1-methyl-1H-pyrazol-3-yl)benzyl)-3,7-dihydro-1H-purine-2,6-dione] — 2.5-fold lower, 0.017 µM
- CCn1c(=O)[nH]c(=O)c2c1nc(Cc1cn3ccccc3n1)n2Cc1ccc(-c2noc(C)n2)cc1 [Ex. 8, 7-(4-(5-methyl-1,2,4-oxadiazol-3-yl)benzyl)-8-((H-imidazo[1,2-a]pyridin-2-yl)methyl)-3-ethyl-1H-purine-2,6(3H,7H)-dione] — 2.4-fold lower, 0.018 µM
- CCn1c(=O)[nH]c(=O)c2c1nc(Cc1cn3ccccc3n1)n2Cc1ccc(-c2ncccn2)cc1 [Ex. 9, 3-ethyl-8-(imidazo[1,2-a]pyridin-2-ylmethyl)-7-(4-(pyrimidin-2-yl)benzyl)-3,7-dihydro-1H-purine-2,6-dione] — 2.1-fold lower, 0.02 µM
- CCn1c(=O)[nH]c(=O)c2c1nc(Cc1cn3ccccc3n1)n2Cc1ccc(-c2nccs2)cc1 [Ex. 10, 3-ethyl-8-(imidazo[1,2-a]pyridin-2-ylmethyl)-7-(4-(thiazol-2-yl)benzyl)-3,7-dihydro-1H-purine-2,6-dione] — 2.5-fold lower, 0.017 µM
- CCn1c(=O)[nH]c(=O)c2c1nc(Cc1cn3ccccc3n1)n2Cc1ccc(-c2nc(C)no2)cc1 [Ex. 12, 3-ethyl-8-(imidazo[1,2-a]pyridin-2-ylmethyl)-7-(4-(3-methyl-1,2,4-oxadiazol-5-yl)benzyl)-3,7-dihydro-1H-purine-2,6-dione] — 2.1-fold lower, 0.02 µM
- CCn1c(=O)[nH]c(=O)c2c1nc(Cc1cn3nc(C)sc3n1)n2Cc1ccccc1 [Ex. 13, 7-benzyl-3-ethyl-8-((2-methylimidazo[2,1-b][1,3,4]thiadiazol-6-yl)methyl)-3,7-dihydro-1H-purine-2,6-dione] — 2.4-fold lower, 0.018 µM
- CCn1c(=O)[nH]c(=O)c2c1nc(Cc1cn3ccsc3n1)n2Cc1ccccc1 [Ex. 14, 7-benzyl-3-ethyl-8-(imidazo[2,1-b]thiazol-6-ylmethyl)-3,7-dihydro-1H-purine-2,6-dione] — 3.9-fold lower, 0.011 µM
- CCn1c(=O)[nH]c(=O)c2c1nc(Cc1cn3ccsc3n1)n2Cc1ccc(-c2ccn(C)n2)cc1 [Ex. 15, 7-(4-(1-methyl-1H-pyrazol-3-yl)benzyl)-3-ethyl-8-((imidazo[2,1-b]thiazol-6-yl)methyl)-1H-purine-2,6(3H,7H)-dione] — 3.1-fold lower, 0.014 µM
- CCn1c(=O)[nH]c(=O)c2c1nc(Cc1cn3cc(C)sc3n1)n2Cc1ccccc1 [Ex. 16, 7-benzyl-3-ethyl-8-((2-methylimidazo[2,1-b]thiazol-6-yl)methyl)-1H-purine-2,6(3H,7H)-dione] — 2.7-fold lower, 0.016 µM
- CCn1c(=O)[nH]c(=O)c2c1nc(Cc1cn3cc(C)sc3n1)n2Cc1ccc(-c2ccn(C)n2)cc1 [Ex. 17, 3-ethyl-7-(4-(1-methyl-1H-pyrazol-3-yl)benzyl)-8-((2-methylimidazo[2,1-b]thiazol-6-yl)methyl)-3,7-dihydro-1H-purine-2,6-dione] — 2-fold lower, 0.021 µM
- CCn1c(=O)[nH]c(=O)c2c1nc(Cc1cn3c(n1)CCCC3)n2Cc1ccc(-c2ccn(C)n2)cc1 [Ex. 18, 7-(4-(1-methyl-1H-pyrazol-3-yl)benzyl)-3-ethyl-8-((5,6,7,8-tetrahydroimidazo[1,2-a]pyridin-2-yl)methyl)-1H-purine-2,6(3H,7H)-dione] — within 1.5-fold, 0.03 µM
- CCn1c(=O)[nH]c(=O)c2c1nc(Cc1cn3ccccc3n1)n2Cc1ccc(CC(=O)OC)cc1 [Ex. 19, methyl 2-(4-((3-ethyl-8-(imidazo[1,2-a]pyridin-2-ylmethyl)-2,6-dioxo-1,2,3,6-tetrahydro-7H-purin-7-yl)methyl)phenyl)acetate] — within 1.5-fold, 0.038 µM
- CCn1c(=O)[nH]c(=O)c2c1nc(Cc1cn3cc(Cl)sc3n1)n2Cc1ccc(-c2ccn(C)n2)cc1 [Ex. 20, 8-((2-chloroimidazo[2,1-b]thiazol-6-yl)methyl)-3-ethyl-7-(4-(1-methyl-1H-pyrazol-3-yl)benzyl)-3,7-dihydro-1H-purine-2,6-dione] — 1.8-fold lower, 0.024 µM
- CCn1c(=O)[nH]c(=O)c2c1nc(Cc1cn3cc(Cl)sc3n1)n2Cc1ccccc1 [Ex. 21, 7-benzyl-8-((2-chloroimidazo[2,1-b]thiazol-6-yl)methyl)-3-ethyl-3,7-dihydro-1H-purine-2,6-dione] — 2.9-fold lower, 0.015 µM
- O=c1[nH]c(=O)n(C2CC2)c2nc(Cc3cn4ccccc4n3)n(Cc3ccccc3)c12 [Ex. 22, 7-benzyl-3-cyclopropyl-8-(imidazo[1,2-a]pyridin-2-ylmethyl)-3,7-dihydro-1H-purine-2,6-dione] — within 1.5-fold, 0.061 µM
- CCn1c(=O)[nH]c(=O)c2c1nc(Cc1cn3ccccc3n1)n2Cc1ccc(CCO)cc1 [Ex. 23, 3-ethyl-7-(4-(2-hydroxyethyl)benzyl)-8-(imidazo[1,2-a]pyridin-2-ylmethyl)-3,7-dihydro-1H-purine-2,6-dione] — 1.7-fold higher, 0.071 µM
- CCn1c(=O)[nH]c(=O)c2c1nc(Cc1cn3ccccc3n1)n2Cc1ccc(CC(=O)O)cc1 [Ex. 24, 2-(4-((3-ethyl-8-(imidazo[1,2-a]pyridin-2-ylmethyl)-2,6-dioxo-1,2,3,6-tetrahydro-7H-purin-7-yl)methyl)phenyl)acetic acid] — 72-fold higher, 3.11 µM
- CCn1c(=O)[nH]c(=O)c2c1nc(Cc1cn3cc(C)sc3n1)n2Cc1ccc(F)cc1 [Ex. 26, 3-ethyl-7-(4-fluorobenzyl)-8-((2-methylimidazo[2,1-b]thiazol-6-yl)methyl)-3,7-dihydro-1H-purine-2,6-dione] — within 1.5-fold, 0.039 µM
- CCn1c(=O)[nH]c(=O)c2c1nc(Cc1cn3cc(C)sc3n1)n2Cc1ccc(OC)cc1 [Ex. 27, 3-ethyl-7-(4-methoxybenzyl)-8-((2-methylimidazo[2,1-b]thiazol-6-yl)methyl)-3,7-dihydro-1H-purine-2,6-dione] — 1.7-fold lower, 0.025 µM
- CCn1c(=O)[nH]c(=O)c2c1nc(Cc1cn3cc(Cl)sc3n1)n2Cc1ccc(NC(C)=O)cc1 [Ex. 28, N-(4-((8-((2-chloroimidazo[2,1-b]thiazol-6-yl)methyl)-3-ethyl-1,2,3,6-tetrahydro-2,6-dioxopurin-7-yl)methyl)phenyl)acetamide] — 2.5-fold lower, 0.017 µM
- CCn1c(=O)[nH]c(=O)c2c1nc(Cc1cn3cc(Cl)sc3n1)n2Cc1ccc(-n2cncn2)cc1 [Ex. 29, 7-(4-(1H-1,2,4-triazol-1-yl)benzyl)-8-((2-chloroimidazo[2,1-b]thiazol-6-yl)methyl)-3-ethyl-3,7-dihydro-1H-purine-2,6-dione] — 1.9-fold lower, 0.023 µM
- CCn1c(=O)[nH]c(=O)c2c1nc(Cc1cn3cc(C)sc3n1)n2Cc1ccc(NC(C)=O)cc1 [Ex. 30, N-(4-((3-ethyl-8-((2-methylimidazo[2,1-b]thiazol-6-yl)methyl)-2,6-dioxo-1,2,3,6-tetrahydro-7H-purin-7-yl)methyl)phenyl)acetamide] — 2.7-fold lower, 0.016 µM
- CCn1c(=O)[nH]c(=O)c2c1nc(Cc1cn3c(n1)CCCC3)n2Cc1ccc(-n2cncn2)cc1 [Ex. 31, 7-(4-(1H-1,2,4-triazol-1-yl)benzyl)-3-ethyl-8-((5,6,7,8-tetrahydroimidazo[1,2-a]pyridin-2-yl)methyl)-3,7-dihydro-1H-purine-2,6-dione] — within 1.5-fold, 0.031 µM
- CCn1c(=O)[nH]c(=O)c2c1nc(Cc1cn3cc(C)sc3n1)n2Cc1ccc(N2CCCC2=O)cc1 [Ex. 32, 3-ethyl-8-((2-methylimidazo[2,1-b]thiazol-6-yl)methyl)-7-(4-(2-oxopyrrolidin-1-yl)benzyl)-3,7-dihydro-1H-purine-2,6-dione] — 2.5-fold lower, 0.017 µM
- CCn1c(=O)[nH]c(=O)c2c1nc(Cc1cn3c(n1)CCCC3)n2Cc1ccc(-n2ccnc2)cc1 [Ex. 33, 7-(4-(1H-imidazol-1-yl)benzyl)-3-ethyl-8-((5,6,7,8-tetrahydroimidazo[1,2-a]pyridin-2-yl)methyl)-3,7-dihydro-1H-purine-2,6-dione] — within 1.5-fold, 0.029 µM
- CCn1c(=O)[nH]c(=O)c2c1nc(Cc1cn3cc(Cl)sc3n1)n2Cc1ccc(N2CC(F)(F)C2)cc1 [Ex. 34, 8-((2-chloroimidazo[2,1-b]thiazol-6-yl)methyl)-7-(4-(3,3-difluoroazetidin-1-yl)benzyl)-3-ethyl-3,7-dihydro-1H-purine-2,6-dione] — 2.2-fold higher, 0.096 µM
- CCn1c(=O)[nH]c(=O)c2c1nc(Cc1cn3c(n1)CCCC3)n2Cc1ccc(NC(C)=O)cc1 [Ex. 35, N-(4-((3-ethyl-2,6-dioxo-8-((5,6,7,8-tetrahydroimidazo[1,2-a]pyridin-2-yl)methyl)-1,2,3,6-tetrahydro-7H-purin-7-yl)methyl)phenyl)acetamide] — within 1.5-fold, 0.036 µM

Reference: patent US10683309B2, “Xanthine derivatives, their use as a medicament, and pharmaceutical preparations comprising the same” (MAX-DELBRÜCK-CENTRUM FÜR MOLEKULARE MEDIZIN, priority 2016, dated 2020)
